Test results published in PubChem BioAssay AID485281 (National Center for Advancing Translational Sciences (NCATS), 2010).
Among all 350,000 compounds or so, about 260 (0.074%) were called active. This list was built around the results that the source calls inconclusive (neither active nor inactive); the mix of calls is not that of the screen. The call rests on the fitted dose curve; in most records, active means well fitted inhibition curve with a large enough effect; inconclusive means small, poorly fitted or top-dose-only effect; inactive means no such curve, though single readings can be large or run the other way. A potency beside an inconclusive call is a rough fit, not a confirmed value.

What follows are compounds tested against Ferritin light chain (Equus caballus) (UniProt P02791) (assay: qHTS Assay for Identification of Novel General Anesthetics). Conditions: apoferritin/1-aminoanthracene competitive binding, fluorescence; series mostly up to 77.5 µM.
How it was run: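 In PBS, apoferritin at 10 uM is loaded with 1-AMA from a 50% saturated solution. After 10 min of compound exposure at ambient temperature, reduced 535 nm fluorescence indicates probe displacement.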
Further: nearly all actives have a fitted effect of over 20% in size.
Potency means the concentration at half of the fitted maximal effect; tags describe the fitted curve by direction and shape.

UniProt P02791, sequence (P02791 whole entry, looked up): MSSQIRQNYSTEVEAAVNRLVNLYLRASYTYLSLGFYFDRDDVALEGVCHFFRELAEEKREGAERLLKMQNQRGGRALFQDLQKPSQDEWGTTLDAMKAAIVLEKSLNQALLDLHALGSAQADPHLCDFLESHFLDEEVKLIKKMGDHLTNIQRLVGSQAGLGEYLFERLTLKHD

Compound | Potency
Cc1ccc(C)c(N(CC(=O)NCc2ccc3c(c2)OCO3)C(=O)CCC(=O)Nc2ccccn2)c1 | inconclusive: 35.5 µM [inhibitor, partial curve]
COCCN(CCOC)c1nc(C)nc2c1nc(-c1ccccc1)n2CCCN1CCCCC1C (stereo not given) | inactive
Cn1cnnc1SCC(=O)Nc1ccc2nc(SCc3ccccc3)sc2c1 | inconclusive: 3.98 µM [inhibitor, full curve]
O=C(Cn1c(SCC(=O)NC2CCCC2)nnc1-c1ccncc1)Nc1ccc2c(c1)OCO2 | inconclusive: 44.7 µM [inhibitor, single point]
COC(=O)C1=C(C(=O)OC)[C@@H]2N(Cc3ccccc3)c3ccccc3[C@@]23C[C@@H](C(=O)OC)N(C(=O)c2cccs2)C3=N1 | inactive
COc1cc(/C=C/C(=O)c2c(O)ccc3c(C)cc(=O)oc23)ccc1O | inconclusive: 15.8 µM [inhibitor, partial curve]
Cc1ccc(-c2[nH]c3c(c2-c2c(-n4cccc4)n(C)c(=O)[nH]c2=O)c(=O)[nH]c(=O)n3C)cc1 | inactive
O=[N+]([O-])c1cc(S(=O)(=O)N2CCCC2)ccc1N/N=C/c1cccs1 | inconclusive: 10 µM [inhibitor, partial curve]
CCC(C)(C)NC(=O)CSc1nc(Cc2ccccc2)nc2ccccc12 | inconclusive: 35.5 µM [inhibitor, partial curve]
COc1cc(N2CCCC2)c(OC)cc1/C=C(/C#N)c1ccc(Br)cc1 | inactive
CC1(C)CSC(=S)N1S(=O)(=O)c1ccccc1 | inconclusive: 35.5 µM [inhibitor, partial curve]
Cn1nc(-c2ccccn2)nc2c(=O)n(C)c(=O)nc1-2 | inactive
COc1cc(-c2nc(SCC(=O)Nc3ccc(C)cc3)c(-c3ccc(F)cc3)[nH]2)cc(OC)c1OC | inconclusive: 0.794 µM [inhibitor, partial curve, poor fit]
Cc1ccc(C2=NS(=O)(=O)N(C)C(C(=O)NC(C)c3ccccc3)=C2)cc1 (stereo not given) | inconclusive: 15.8 µM [inhibitor, partial curve]
Cc1ccc(Cl)cc1NC(=O)C1COc2ccccc2O1 (stereo not given) | inconclusive: 12.6 µM [inhibitor, partial curve]
Cc1cccc(-c2nn3c(=O)cc(CN4CCN(C(=O)c5ccccc5Br)CC4)nc3s2)c1 | inconclusive: 2.82 µM [inhibitor, full curve, poor fit]
CC1CCCN(c2cc(N(C)CCO)c([N+](=O)[O-])c3nonc23)C1 (stereo not given) | inactive
O=C(N/N=C/c1ccc(O)c(O)c1O)/C(=C/c1ccc([N+](=O)[O-])cc1)NC(=O)c1ccccc1 | inconclusive: 12.6 µM [inhibitor, partial curve]
Cc1ccc(/C=C2\SC(=S)N(CCC(=O)NNS(=O)(=O)c3ccc(C)cc3)C2=O)cc1 | inconclusive: 11.2 µM [inhibitor, single point]
COc1ccc(OC)c(C2CC(=O)N3CN(c4cccc(Cl)c4C)CSC3=C2C#N)c1 (stereo not given) | inconclusive: 35.5 µM [inhibitor, single point]

Compound | Potency
CCOC(=O)/C=C/C(=O)Nc1cccc([N+](=O)[O-])c1 | inactive
CC(=O)N1CCc2c(sc3nc(SCC(C)C)n(-c4ccc(C)c(Cl)c4)c(=O)c23)C1 | inconclusive: 11.2 µM [inhibitor, partial curve]
CC(C)(C)c1ccc(/C=N/NC(=O)Cc2c[nH]c3ccccc23)cc1 | inconclusive: 25.1 µM [inhibitor, partial curve]
Cc1nc2scc(C)n2c(=O)c1S(=O)(=O)Nc1ccc(N2CCN(S(C)(=O)=O)CC2)cc1 | inconclusive: 15.8 µM [inhibitor, partial curve]
CC(C)(C)C(=O)[C@@H]1[C@@H]2C(=O)N(C3CCCCC3)C(=O)[C@@H]2[C@H]2c3ccccc3C=CN12 | inconclusive: 44.7 µM [inhibitor, partial curve]
Cn1c(=O)c2c(c3ccccc31)OC(=O)CC2c1cccnc1 (stereo not given) | inactive
CCC(c1ccccc1)c1nc(-c2cccnc2)no1 (stereo not given) | inactive
CC(=O)OCCNc1cc(SC(C)C)c2nonc2c1[N+](=O)[O-] | inconclusive: 31.6 µM [inhibitor, partial curve]
CC(C)(C)c1ccc(OCCCC(=O)NC2=NCCS2)cc1 | inconclusive: 15.8 µM [inhibitor, partial curve]
CCc1ccc(NS(=O)(=O)c2ccc3[nH]cc(C(=O)NCc4ccc(C)cc4)c(=O)c3c2)cc1 | inconclusive: 7.94 µM [inhibitor, partial curve]
COc1ccccc1N1CCN(C(c2cccs2)C(C)NC(=O)c2cccs2)CC1 (stereo not given) | inconclusive: 10 µM [inhibitor, partial curve]
COc1ccc(OC)c(-c2cc(C(=O)NCc3ccco3)no2)c1 | inactive
CC1CCCCN1S(=O)(=O)c1ccc(NC(=O)c2cccc(-n3cnnn3)c2)cc1 (stereo not given) | inconclusive: 14.1 µM [inhibitor, partial curve]
CC1=C(/C=C/C(C)=C/C=C/C(C)=C\C(=O)O)C(C)(C)CCC1 | inconclusive: 50.1 µM [inhibitor, single point]
O=C(N/N=C/c1ccncc1)NC12CC3CC(CC(C3)C1)C2 | inconclusive: 25.1 µM [inhibitor, partial curve]
CC/C(=C(/CC)c1ccc(O)cc1)c1ccc(O)cc1 | inconclusive: 22.4 µM [inhibitor, partial curve]
CCOc1ccccc1NC(=O)Cn1c(=O)n(-c2ccccc2)c(=O)c2c1c1cc(C)ccc1n2C | inactive
CC1CCN(S(=O)(=O)c2ccc(NC(=O)CCN3C(=O)c4ccccc4C3=O)cc2)CC1 | inconclusive: 31.6 µM [inhibitor, partial curve]
Cc1ccc(C(=O)NCC(=O)OCC(=O)NC2CCCC(C)C2C)s1 (stereo not given) | inconclusive: 35.5 µM [inhibitor, single point]
S=C(c1ccc2c(c1)OCO2)N1CCCCCC1 | inconclusive: 15.8 µM [inhibitor, partial curve]
